Measurements as given in PubChem BioAssay AID1508624 (National Center for Advancing Translational Sciences (NCATS), 2021).
In all, about 48,000 compounds went through this assay and about 120 (0.25%) were called active. Not shown: some 4% with an inconclusive outcome. Calls follow the shape of the dose curve; as a rule, active = well fitted activation curve with a large enough effect; inconclusive = small, poorly fitted or top-dose-only effect, or another doubt; inactive = no such curve, though single readings can be large or run the other way. Some of the results follow.

test: Primary qHTS for Identification of Small Molecule Activators of Huntingtin-Antisense Promoter Activity; settings: HEK293 HTT-AS promoter firefly luciferase reporter, 24 h; series mostly up to 57.5 µM; activity change, positive = activation: at the top concentration; also: nearly all actives have a fitted effect of over 55% in size
Method in brief: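 HEK293 Fluc reporter, 2,500 cells/well, 24 h pre-culture; cpds up to 57.5 uM final, 24 h 37 degrees C; Dual-Glo, 10 min RT; normalized vehicle = 0%, zero RLU = -100%.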

Activity change, positive = activation, inactive:
COc1ccc(NC(=O)CSc2nc(-c3ccc(F)cc3)[nH]c2-c2ccc(C)cc2)cc1OC -22.1%
Cc1ccc(CNC(=O)c2cc(C)nc3c2c(C)nn3-c2ccc(C)cc2)cc1 -11%
Cc1ccc2c(c1)-c1ncc(C(=O)c3ccccc3O)cc1CO2 17.9%
Cc1cc(C)cc(NC(=O)CSc2nc(-c3ccccc3)c3cc(F)ccc3n2)c1 -4.77%
Cc1ccc(C(=O)NC2=NC(c3ccc(C)cc3)CC(=O)N2)cc1 (centres undefined) -0.867%
CC(=O)OCC(=O)[C@@]1(OC(C)=O)[C@@H](C)C[C@H]2[C@@H]3C[C@H](F)C4=CC(=O)C=C[C@]4(C)[C@@]3(F)[C@@H](O)C[C@@]21C -18.5%
CC(=O)c1ccc(NC(=O)c2cc3sccc3n2Cc2ccc(F)cc2)cc1 -21.4%
CCCCCOC(=O)CSc1ncnc2sc3c(c12)CCC(C)C3 (centres undefined) 2.38%
Cc1ccc2nc3sc(C(=O)NCCCN(C)c4ccccc4)cc3cc2c1 16.4%
COc1ccccc1CNC(=O)CCC1N=C2c3ccccc3N=C(SCc3ccc(C)cc3C)N2C1=O (centres undefined) -27.1%
COc1ccc(NC(=O)CN(c2cc(C)cc(C)c2)S(=O)(=O)c2c(C)noc2C)cc1Cl -36.8%
Fc1cccc(-n2ncc3c2ncn2nc(Cc4ccccc4)nc32)c1 -12%
COc1ccc(-c2nc(SCC(=O)Nc3ccc4c(c3)OCCO4)c(-c3ccc(C)cc3)[nH]2)cc1OC -32.5%
COc1ccc(NC(=O)CSc2ccc3nc(-c4ccccc4)cn3n2)cc1OC 5.98%
CC(C)NC(=O)c1nn(-c2ccccc2F)nc1CO -13.1%
CC(N=C(NC#N)Nc1ccncc1)C(C)(C)C (centres undefined) -7.29%
Cc1ccc(CNC(=O)CN2C(=O)COc3ccc(S(=O)(=O)Nc4ccccc4)cc32)cc1 -17.9%
CC(C)(C)OC(=O)N1CCC(c2nnc(SCc3cccc(Cl)c3)o2)CC1 -33.4%
Cc1ccc(C(=O)c2c(N)c(-c3nc(-c4ccc5c(c4)OCO5)cs3)c3ccccn23)cc1C 5.05%
Cc1cccc(N2CCN(C(=O)Cc3c(C(=O)O)c(C)cn3C)CC2)c1C -20.9%
Cc1ccc(C(=O)Nc2cc(-c3nc4ncccc4o3)ccc2C)c(C)c1 -2.56%
CC(=O)N1CCc2c(sc3c2c(=O)n(Cc2ccccc2)c(=O)n3Cc2ccc(C)cc2)C1 -13.8%
COC(=O)c1ccc(Cn2cnc3nc4c(cc3c2=O)CCCC4)cc1 10.6%
CCC(Cc1ccccc1)NC(=O)CN1C(=O)COc2ccc(S(=O)(=O)N3CCCCCC3)cc21 (centres undefined) -28.6%
Cc1cc2c(cc1NC(=O)c1ccccc1C)n(C)c(=O)c(=O)n2C -8.77%
COc1ccc(CCNC(=O)CCCn2c(=O)c3cccn3c3ccccc32)cc1OC 1.14%
CCOCCCNC(=O)C1CCN(C(=O)c2cc3sccc3n2C)CC1 -7.83%
CCc1ccc(CNC(=O)CCCN2C(=O)CCn3nc(-c4cccn4C)cc32)cc1 2.7%
COc1ccc(NC(=O)CCCN2C(=O)C(c3ccccc3)Oc3cccnc32)c(OC)c1 (centres undefined) -21.3%
CCc1ccc2oc(C(=O)Nc3cccc(Cl)c3C)cc(=O)c2c1 5.61% [at 11.5 µM, percent change from vehicle, -100% = no light]
CC(C)CCN(Cc1ccco1)C(=O)c1cc2c(s1)-c1ccccc1OC2 -25.9%
O=C(COc1ccccc1)OCc1cc(=O)n2nc(C3CC3)sc2n1 7.15%
COc1cc(-c2nnc(SCCOc3ccc(Cl)cc3)o2)cc(OC)c1OC -16.4%
O=C(Nc1ccc(O)c(-c2nc3ccccc3o2)c1)c1sc2ccccc2c1Cl -23.6%
O=C(CSCc1cnn(-c2ccccc2)c1-n1cccc1)NCc1ccc(Cl)cc1 -26%
Cc1nc2ccn(Cc3ccccc3)c(=O)c2cc1C(=O)N1CCN(c2ccccc2F)CC1 -20.9%
Cc1cc(F)ccc1S(=O)(=O)Nc1ccc2oc3c(c2c1)CC(C)CC3 (centres undefined) -30.5%
Cc1cccc(C2C=C(c3ccc(C)c(C)c3)Nc3nnnn32)c1 (centres undefined) -19.1%
CCOc1ccccc1C(=O)NC1(C(F)(F)F)NC(=O)N(CCc2ccc(OC)c(OC)c2)C1=O (centres undefined) -34.5%
COc1cc(OC)cc(-c2cc3nc(C)c(CCC(=O)NCc4ccccc4)c(C)n3n2)c1 -86.4%
CC(C)c1ccc(NC(=O)c2ccc3c(c2)CCN3S(=O)(=O)c2ccccc2)cc1 -14.6%
O=C(Nc1nnc(S(=O)(=O)N2CCCc3ccccc32)s1)c1ccccc1Cl -15.1%
CCOc1ccccc1CNC(=O)C1CCN(S(=O)(=O)c2ccc3[nH]c(=O)ccc3c2)CC1 -5.32%
CCOc1ccccc1NC(=O)Cn1ncc2c(=O)oc3ccc(C)cc3c21 -5.49%
CCOC(=O)c1c(C)oc2ncnc(Nc3ccc(OC)cc3OC)c12 4.52%
COc1ccccc1NC(=O)CSC1=Nc2ccccc2C2=NC(CCC(=O)NCCc3ccccc3)C(=O)N12 (centres undefined) -3.91%
COc1ccc(N2CCN(C(c3ccccc3)c3sc4nc(-c5ccco5)nn4c3O)CC2)cc1 (centres undefined) -13.8%
Cc1ccc(C(=O)N2CCc3cc(CNS(=O)(=O)c4cccs4)ccc32)cc1 -50.3%
CN1C(=O)Cc2cc(S(=O)(=O)NCCc3ccc(Cl)cc3)ccc21 -6.21%
COc1ccc(-c2noc(CSc3nnc(C)n3-c3ccc(C)cc3)n2)cc1OC -37%
Nc1nc2c(ncn2CCC(CO)CO)c(=O)[nH]1 -12.8%
Cc1ccc(-n2cc(C(=O)Oc3cccc(C)c3)c3ccccc3c2=O)cc1 -9.19%
COc1cccc(NC(=O)CSC2=Nc3ccccc3C3=NC(CCC(=O)NCCc4ccccc4)C(=O)N23)c1 (centres undefined) -24.6%
Cc1cccc(NC(=O)c2ccc3nc(C(C)C)oc3c2)c1C -37.3%
O=c1c2ccccc2n(Cc2ccccc2Cl)c(=O)n1CCc1ccccc1 -8.58%
CCOC(=O)c1ccc(Nc2nc3ccc(C(=O)c4ccccc4)cc3n3c(C)nnc23)cc1 -16.6%
CCCN(CCC)C(=O)Cn1c(=O)n(-c2ccc(CC)cc2)c(=O)c2ccc(C(=O)NCCc3ccccc3)cc21 -12.2%
CCCCCOc1ccc(Cn2c(=O)oc3ccccc32)cc1 0.312%
COc1cc(Cl)c(NC(=O)CCS(=O)(=O)c2ccc3c(c2)NC(=O)CO3)c(OC)c1 -1.93%
COc1ccc(CCNC(=O)c2ccc3c(c2)CCN3S(=O)(=O)c2ccc(C)cc2)cc1 -35.1%
CCCOc1ccc(C(=O)OCCN(CC)CC)cc1N
CC(C)(C)OC(=O)N1CCC(c2c(C(=O)NC3CCN(Cc4ccccc4)CC3)cnn2-c2ccc(F)cc2F)CC1 -6.44%
CCOc1ccc(NC(=O)C(=O)c2cc(C)n(-c3cc(C)cc(C)c3)c2C)cc1 4.37%
Cc1ccc(NC(=O)C2CCCN(S(=O)(=O)c3ccc4c(c3)oc(=O)n4C)C2)cc1Cl (centres undefined) -21.1%
COc1ccc(-c2cc(C(=O)NCCc3ccccc3)c3c(-c4ccccc4)[nH]nc3n2)cc1OC -0.275%
Cc1ccc(-n2nc(CO)c(C(=O)NC(C)CCCc3ccccc3)n2)cc1 (centres undefined) -28.6%
COc1ccc(NC(=O)c2c(NCc3sccc3C)sc3c2CCCC3)c(OC)c1 -13.8%
CCc1nn2c(=O)cc(COC(=O)CNC(=O)COc3ccc(C)cc3)nc2s1 0.607%
CCC(=O)N1CCc2cc(S(=O)(=O)CCC(=O)N3CCN(c4ccc(Cl)cc4)CC3)ccc21 -44%
CC(C)CC(NS(=O)(=O)c1ccc2c(c1)oc(=O)n2C)C(=O)NCc1ccccc1Cl (centres undefined) -14.7%
CCCOc1ccc(CN(C(=O)Cc2coc3ccc(CC)cc23)C2CCS(=O)(=O)C2)cc1 (centres undefined) -26.2%
CCCn1c(=O)sc2cc(NC(=O)c3ccc(OC)c(Br)c3)ccc21 -29.5%
Cc1ccc(NC(=O)CN2CCN(S(=O)(=O)c3ccc(C(C)C)cc3)CC2)cc1F -24.7%
COc1ccc(Nc2nc(N)nc(N)c2S(=O)(=O)c2ccccc2)cc1 -26.1%
Cc1cn(C)c(CC(=O)N2CCN(c3cccc(Cl)c3)CC2)c1C(=O)O -9.46%
CCOc1ccc(OCC)c(Nc2ccc3cc(S(=O)(=O)N4CCCC4)ccc3n2)c1 -13.9%
CCC1=Nc2cc(C(=O)NC3CCC(C)CC3)ccc2Sc2ccc(C)cc21 (centres undefined) -35.8%
CCC1CN(C(=O)N2CCC(C(=O)NCc3cccc(OC)c3OC)CC2)c2cc(C)ccc2O1 (centres undefined) -24.9%
COc1ccccc1NC(=O)c1sc2nc(C)c(C(=O)Nc3ccc(C)cc3C)c(-c3ccco3)c2c1N -13.3%
O=C(C1CCCN(S(=O)(=O)c2cccc3nsnc23)C1)N1CCN(c2ccccc2F)CC1 (centres undefined) -35.2%
CCC(C)NC(=O)CSc1nc2n[nH]c(C)c2c(=N)n1-c1cc(Cl)ccc1C (centres undefined) -34.2%
COc1cccc(-c2noc(C3CC(=O)N(c4ccc(F)cc4)C3)n2)c1OC (centres undefined) -1.93%
COc1ccccc1CNC(=O)c1cc2sccc2n1Cc1ccc(Cl)cc1 -18.2%
COc1ccc(NC(=O)CSc2ccc3nc(-c4ccccc4)cn3n2)c(OC)c1 -88.4%
CCc1ccc(NC(=O)CCn2c(=O)c3cccn3c3ccccc32)cc1 -28%
Cc1ccccc1NC(=O)CSc1nc2ccc(NC(=O)c3cccs3)cc2s1 -7.68%
Cc1ccc(NC(=O)c2ccc3[nH]c(C)cc(=O)c3c2)cc1 -9.36%
CC(C)(O)Cn1c(NC(=O)c2ccc(-c3cn[nH]c3)s2)nc2cc(CN3CCOCC3)ccc21 -42.7%
CCOc1ccc(S(=O)(=O)Nc2cccc(-c3ccc(OCC)nn3)c2)cc1 -51.1%
COc1ccccc1CCNC(=O)C(=O)NCC(c1cccs1)S(=O)(=O)c1cccs1 (centres undefined) -37.4%
Cc1ccc(/C=C/c2onc(C)c2S(=O)(=O)N2CCC(C(=O)Nc3cc(C)ccc3C)CC2)cc1 -7.12%
COc1ccc(S(=O)(=O)c2cn(C)c3ccc(C)cc3c2=O)cc1 0.337%
O=C(Nc1ccc(F)cc1C(F)(F)F)C1CCN(c2ncccn2)CC1 -3.99%
Cc1cccc(NC(=O)c2c(C)cc(C)nc2SCC(=O)c2ccccc2)c1 -11.4%
